PubChem BioAssay (NCATS)
This list was built around the results that the source calls inconclusive (neither active nor inactive); the mix of calls is not that of the screen. The source made the active and inactive calls. The call rests on the fitted dose curve; in most records, active means well fitted curve in either direction with a large enough effect (not every such curve was filed as active); inconclusive means small, poorly fitted or top-dose-only effect, or another doubt; inactive means flat fitted curve, though single readings scatter.

Assay: NFAT Signaling Pathway (AID 444);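 further: carbachol stimulus at about its EC50 of 1 µM final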
Conditions: Jurkat NFAT-bla M1, carbachol, beta-lactamase ratio, 5 h; at 17.2 µM (top of the series) unless noted
Outline: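 Jurkat cells with NFAT-driven β-lactamase reporter and co-expressed M1 receptor, stimulated with carbachol (final 1 uM, ~EC50), compound titration, 5 h at 37 °C. CCF4 loaded 1 h at RT; 460/530 nm ratio gave %activity and AC50.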
On the % scale 0 is the no-effect control and ±100 the full control effect.

Row | SMILES | activity change, negative = inhibition
1 | CN1C2C=C3C(C#N)=C(N)C(C#N)(C#N)[C@@H](c4ccc(Cl)cc4)[C@@H]3C1CC2 (stereo not given in full) | inconclusive: -69% [inhibitor]
2 | Cn1c(OCc2ccco2)nc2c1c(=O)n(Cc1ccc(Cl)c(Cl)c1)c(=O)n2C | inconclusive: -35% [inhibitor]
3 | CCCSc1nnc2n(C)c(=O)c3c4c(sc3n12)CCC4 | inconclusive: -56.6% [inhibitor]
4 | CC(=O)N1CCC[C@@]2(CCN(c3ccccc3)C2)C1 | inconclusive: -43.3% [inhibitor] [at 7.69 µM]
5 | CC(=O)c1cc(CN2CCCCC2)cc(OC(C)C)c1 | inconclusive: -43.7% [inhibitor]
6 | COC(=O)/C=c1/s/c(=C(\C#N)C(=O)NCc2ccco2)n(-c2ccccc2)c1=O | inactive: -25.7%
7 | CC1(C)Cc2nc(N)c(C(=O)NCCO)cc2CO1 | inactive: 3.25%
8 | N[C@H](C(=O)O)[C@H](N)C(=O)O | inactive: -1.65% [at 7.69 µM]
9 | CCOC(=O)c1sc2c(c1C)c(=O)c(C(=O)OCC)cn2CC | inconclusive: 17.9% [inhibitor]
10 | Nc1ccn([C@H]2O[C@@H](COP(=O)(O)O)[C@@H](O)[C@H]2O)c(=O)n1 | inactive: 12.4% [at 7.69 µM]
11 | COc1ccccc1CN1CCCC2(CCN(S(=O)(=O)c3ccccc3)CC2)C1 | inconclusive: -69.6% [inhibitor] [at 7.69 µM]
12 | COCCCNC(=O)c1c(N)n(/N=C/c2cccnc2)c2nc3ccccc3nc12 | inconclusive: -51% [inhibitor]
13 | CCCn1c(SCC#N)nc2c(c1=O)C1(CCCC1)Cc1ccccc1-2 | inconclusive: -61.8% [inhibitor]
14 | Cc1[nH]nc2c1C(CCc1ccccc1)C(C#N)=C(N)O2 (stereo not given) | inactive: 10.3%
15 | Cn1c(NCc2ccccc2)nc2c1c(=O)n(Cc1ccccc1)c(=O)n2C | inactive: -0.651%
16 | CC1(C)CCN(Cc2ccccc2)C1CC#N (stereo not given) | inconclusive: -35.1% [inhibitor]
17 | Nc1ncnc2c1ncn2[C@H]1O[C@@H](C(=O)O)[C@@H](O)[C@H]1O | inconclusive: -38.8% [inhibitor] [at 7.69 µM]
18 | COCCNC(=O)c1c(N)n(/N=C/c2cccs2)c2nc3ccccc3nc12 | inconclusive: 43.8% [activator]
19 | Fc1ccc(-c2cnc[nH]2)cc1 | inactive: -3.45%
20 | O=C(NC1CCCCC1)N1CCSC1=Nc1ccccc1 | inconclusive: -84.1% [inhibitor]

Row | SMILES | activity change, negative = inhibition
21 | Cc1ccc(CNC(=O)c2cc3c(=O)n4ccccc4nc3n(Cc3ccco3)c2=N)cc1 | inconclusive: -37.3% [inhibitor]
22 | O=C(O)CCCCCN1C(=O)CCC1=O | inactive: 23.1%
23 | CCCCOC(=O)c1[nH]c(C)c(C(=O)OC)c1C | inactive: 8.05%
24 | Cn1c(=O)c2c3c(sc2n2c(SCc4ccccc4)nnc12)CCCC3 | inconclusive: -47.5% [inhibitor]
25 | CCCCCNC(=O)c1c(N)n(/N=C/c2ccco2)c2nc3ccccc3nc12 | inconclusive: 48% [activator]
26 | C/C(=N/Nc1nc(C)cc(=O)[nH]1)C(=O)O | inactive: 1.78% [at 7.69 µM]
27 | CC(C)[C@]1(Cl)CC[C@@H]2[C@]3(C)CCC[C@@](C)(C(=O)O)[C@H]3C[C@H](Cl)[C@@]2(Cl)[C@H]1Cl | inactive: 0.923% [at 7.69 µM]
28 | CC(C)OC(=O)C(C#N)c1nc2ccccc2nc1N1CCN(Cc2ccc3c(c2)OCO3)CC1 (stereo not given) | inconclusive: -34.2% [inhibitor]
29 | C=C(C)CSc1nnc2n(C)c(=O)c3c4c(sc3n12)CCC4 | inconclusive: -40.3% [inhibitor]
30 | NC(=O)C[C@H](N)C(N)=O | inactive: 12.4% [at 7.69 µM]
31 | CCOc1ccccc1N1CCN(c2nc3ccccc3nc2C(C#N)C(=O)OC(C)C)CC1 (stereo not given) | inconclusive: -44% [inhibitor]
32 | N#CC1=C(N)N2C(=C(C#N)C1c1ccccc1)Sc1ccccc12 (stereo not given) | inactive: -26.8%
33 | O=C(c1cc(C(F)(F)F)cc(C(F)(F)F)c1)N1CCC2(CCN(Cc3ccccc3)CC2)CC1 | inconclusive: -63.6% [inhibitor] [at 7.69 µM]
34 | CC1(C)C2CCC1(C)C(NC(=O)CCN1CCCCC1)C2 (stereo not given) | inconclusive: -60% [inhibitor]
35 | CCOc1ccc2nc(NC(NC(=O)CC)(C(=O)OC)C(F)(F)F)sc2c1 (stereo not given) | inactive: 8.42%
36 | Cc1nn(C)cc1/C=N/n1nnnc1N | inconclusive: 11.7% [activator]
37 | CCC1CCCCN1c1nc(-c2cccc(OC)c2O)nc2ccccc12 (stereo not given) | inconclusive: -41.9% [inhibitor]
38 | CCCc1nc(NC2CCCCC2)c(C#N)c2c1COC(C)(C)C2 | inconclusive: -50.6% [inhibitor]
39 | C=CCNc1nc(N2CCCCC2)c(C#N)c2c1CN(Cc1ccccc1)CC2 | inconclusive: -38.6% [inhibitor]
40 | CN(C)c1ccc(O)c2c1CC1CC3[C@@H](N(C)C)C(=O)C(C(N)=O)=C(O)[C@]3(O)C(=O)C1=C2O (stereo not given in full) | inactive: 8.29%
